This is one part of the list. Shown are side measurements of this screen, not its main read-out; they come without a call. Compounds called inactive in the main read-out are mostly missing here. Words in brackets tell the shape of the fitted curve; partial curves, single points and poor fits give uncertain potencies.
Assay: qHTS Assay for Lipid Storage Modulators (AID 1519)
Conditions: Drosophila S3 cells, BODIPY lipid droplet/cell ratio, laser cytometry, cells loaded with oleic acid
Method in brief: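 Cells seeded at 5,000 per well were treated with compounds over a concentration series and loaded with oleic acid (400 uM, as added). Lipid droplet fluorescence (488 nm excitation, 500-530 nm channel) was read by laser-scanning cytometry and normalized to 20 uM Triacsin C.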

[1] = measured here: cell count channel max response
[2] = measured here: lipid (BODIPY) channel AC50
[3] = measured here: lipid channel max response
[4] = measured here: cell number channel AC50
Tags describe the fitted curve by direction and shape.

| Structure (SMILES) | max response [1] [%] | AC50 [2] | max response [3] [%] | AC50 [4] |
| --- | --- | --- | --- | --- |
| O=c1cccc2n1CC1CNCC2C1 (configuration not stated) | 6.91 | 501 nM [rising, full curve, poor fit] | 17.3 |  |
| C[n+]1c2cc(N)ccc2cc2ccc(N)cc21 | -19.6 | 14100 nM [falling, single point] | -51.3 |  |
| N#Cc1cccc(NC(=O)N2CC[C@@]3(CCCN(C(=O)Oc4ccccc4)C3)C2)c1 | 29.3 | 891 nM [rising, partial curve, poor fit] | 39.1 |  |
| CS(=O)(=O)Nc1ccc(Cc2noc(-c3ccc4[nH]cc(CCN)c4c3)n2)cc1 | 39.4 |  | 67.2 | 17800 nM [rising, single point] |
| CN1C2CCC1CC(NC(=O)c1nn(C)c3ccccc13)C2 (configuration not stated) | 40.7 |  | 40.5 | 39800 nM [rising, single point] |
| COC(C)C(O)(C(=O)OC1=CCN2CC[C@H](O)[C@H]12)C(C)C (some centres not stated) | -29.2 | 31600 nM [falling, partial curve, poor fit] | -35 |  |
| c1csc(CN2CCCC3(CCNCC3)C2)n1 | 22.5 | 1260 nM [rising, partial curve] | 31.1 |  |
| Oc1ccc2c3c1O[C@H]1c4oc5ccccc5c4C[C@]4(O)[C@H](C2)N(CC2CC2)CC[C@@]314 | 26.7 | 316 nM [rising, full curve, poor fit] | 38.8 |  |
| COc1ccc2[nH]c3c(c2c1)CCN=C3C | -15.4 | 14100 nM [falling, single point] | -66.4 |  |
| O=c1cccc2n1CC1CC2CN2CCCC[C@H]12 (some centres not stated) | -15.2 |  | 8.77 | 0.891 nM [falling, full curve, poor fit] |
| CCOC(OCC)P(=O)(O)CCCN | -24 |  | -24.3 | 178 nM [falling, full curve, poor fit] |
| N[C@H](CCP(=O)(O)O)C(=O)O | -9.38 | 12600 nM [rising, single point] | -9.43 |  |
| CCCN1CCC[C@@H](c2cccc(C#N)c2)C1 | 17.7 |  | 18 | 15800 nM [falling, single point] |
| CC[C@@H]1CN2CCc3cc(OC)c(OC)cc3[C@H]2C[C@@H]1C[C@H]1NCCc2cc(OC)c(OC)cc21 | -23.1 | 2510 nM [falling, partial curve] | -44.9 |  |
| O=C(Oc1ccccc1)N1CCC[C@@]2(CCN(Cc3ccccc3)C2)C1 | 12.8 | 5.62 nM [rising, full curve, poor fit] | 25.1 |  |
| C=C1[C@@H](O)C2C=CC[C@H](C)C(=O)[C@@](C)(O)C=C[C@@H](OC(C)=O)[C@@]23C(=O)N[C@H](Cc2ccccc2)[C@@H]3[C@@H]1C (some centres not stated) | 17.3 | 1260 nM [rising, full curve, poor fit] | 24.4 |  |
| COc1ccccc1CN1CCCC2(CCN(C(=O)Oc3ccccc3)CC2)C1 | 26.4 | 14.1 nM [rising, full curve, poor fit] | 38.2 |  |
| CC(C)CC1C(=O)N2CCCC2C2(O)O[C@@](NC(=O)C3C=C4c5cccc6[nH]c(Br)c(c56)CC4N(C)C3)(C(C)C)C(=O)N12 (some centres not stated) | -13.9 | 20000 nM [falling, single point] | -37.6 |  |
| C[N+](C)(C)CC(=O)O | 53.6 |  | 53.8 | 39800 nM [rising, single point] |
| C/C(=C\C=C/[C@@H](C)C(=O)O)[C@H]1CN[C@H](C(=O)O)[C@@H]1CC(=O)O | 28.8 | 15800 nM [rising, single point] | 34.6 |  |
| CNNC | 20.8 | 35.5 nM [rising, full curve] | 30.3 |  |
| COc1ccc(-c2oc3cc(OC)ccc3c(=O)c2O)cc1 | 68.5 |  | 89.7 | 35500 nM [rising, single point] |
| CC1=C(O)C(=O)C=C2C1=CC=C1[C@]2(C)CC[C@@]2(C)C3C[C@](C)(C(=O)O)CC[C@@]3(C)CC[C@@]12C (some centres not stated) | -29.7 | 10000 nM [falling, partial curve] | -55.8 |  |
| CC1=C(O)C(=O)[C@H]2O[C@@H]2C1=O | 29.1 |  | -94.7 | 2820 nM [rising, full curve, poor fit] |
| CC(C)CN1CC[C@@]2(CCCN(C(=O)Oc3ccccc3)C2)C1 | 16.3 | 891 nM [rising, full curve] | 23.2 |  |
| CNC(=O)Oc1ccc2c(c1)C1(C)CCN(C)C1N2C (configuration not stated) | 15.6 | 14100 nM [rising, single point] | 17.9 |  |
| O=C1C2CCN(CC2)C1(CO)CO | -23.7 | 25.1 nM [falling, full curve, poor fit] | -30 |  |
| COc1ccc2c(c1O)-c1c(OC)c(OC)cc3c1[C@@H](C2)N(C)CC3 | 24.8 | 39800 nM [rising, single point] | 47.2 |  |
| C#CCN(C)[C@H](C)Cc1ccccc1 | -15.3 | 11.2 nM [falling, full curve, poor fit] | -17.2 |  |
